The text below walks through data of the RNAGym collection of RNA variant scans (doi:10.1093/nar/gkz1192).

Read counts are not given, so values of variants with three or more changes are uncertain.

To fix the notation:
B1: CPEB3 Ribozyme (parent)
chain: UAACAGGGGGCCACAGCAGAAGCGUUCACGUCGCAGCCCCUGUCAGAUUCUGGUGAAUCUGCGAAUUCUGCUGUAUAUCUC

The variants in this data set derive from B1. Description: self-cleavage, relative activity (ratio to wild type); higher = more cleavage; in vitro, sequencing. Put shortly:
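After error-prone PCR and barcoding, CPEB3 ribozyme mutant libraries were transcribed with T7 RNA polymerase at 37°C for 5 hours, then given 15 min with DNase I before an EDTA stop, and they cleaved during both steps. Reverse transcription with template switching preceded Illumina sequencing. Relative activity divides a variant's cleaved/total read fraction by the unmutated ribozyme's. At least 5 reads were required per variant, and three batches were averaged.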
Regarding UAACAGGGGGCCACAGCAGAAGCGUCCACGACGCAGCCCCUGUCAGAUUCUGGUGGAUCUGCGAAUUCUGCUGUAUAUCUC [U26C U31A A56G], the self-cleavage came to 0.17.

As for UAACAGGGGGCCACAGCAGAAGCGUCCACGUCUCGGCCCCUGUCAGAUUCUGGCGAAUCUGCGAAUUCUGUUGUAUAUCUC [U26C G33U A35G U54C C71U], the self-cleavage amounted to 0.11.

As for UAACAGGGGGCCACAGCAGAAGCGUCCACGACGCAGCCCCCGUCAGAUUCUGGUGAAUCUGCGAAUUCUGCUGUAUUUCCC [U26C U31A U41C A77U U80C], the self-cleavage came out at 0.24.

With UAACAGGGGGCCACAGCAGAAGCGUCCACGUCGCAGCCCCCGUCAGAUUCUGGUGAAUCCGCGAAUUCUGCUGUAUAUCUC [U26C U41C U60C], the self-cleavage came out at 0.18.

In the case of UAACAGGGGGCCACAGCAGAAGCGUCCACGACGCGGCCCCAGUCAGAUUCUGGGGAAUCUGCGAAUUCUGCUGUAUAUCUC [U26C U31A A35G U41A U54G], the self-cleavage came out at 0.26.

Consider UAACAGGGGGCCACAGCAGAAGCGUCCACGUCGCAGCCCCAGUCAGAUUCUGGUGAAUCUGCGAACUCUGGUGUAUAUCGC [U26C U41A U66C C71G U80G], for which the self-cleavage was 0.07.

With UAACAGGGGGCCACAGCAGAAGCGUCCACGUCGCAGCCCCCGUCAGAUUCUGGUGAAUCUGCGAGUUCUGCUGUAUAUCUC [U26C U41C A65G], the self-cleavage amounted to 0.69.

For the variant UAACAGGGGGCCACAGCAGAAGCGUCCACGACGCAGCCCCUGUCAGAUUCUGGUGAAUCUGCGAAUUCUGCUGUAUUCCUC [U26C U31A A77U U78C], the self-cleavage came to 0.2.

Regarding UAACAGGGGGCCACAGCAGAAGCGUCCACGUCGCAGCCCCUGUCAGAUUCUAGCGAAUCUGCGAAUUCUGCUGUAUAUCUC [U26C G52A U54C], the self-cleavage was determined as 0.49.

On to UAACAGGGGGCCACAGCAGAAGCGUCCACGUCGCAGCCCCAGUCUGAUUCUGGUGAAUCUGCGGAUUCUGCUGUAUAUCUC [U26C U41A A45U A64G], for which the self-cleavage was 0.44.

UAACAGGGGGCCACAGCAGAAGCGUCCACGCCGCAGCCCCUGUCAGAUUCUGGUGAAUCUGCGAACUCUGCUGUGUAUCUC [U26C U31C U66C A75G]: the self-cleavage turned out to be 0.13.

As for UAACAGGGGGCCACAGCAGAAGCGUCCACGUCGCAGCCCCCGUCAGAUUCUGGUGAAUCCGCGAAUUCUGCUGUAUGUCUC [U26C U41C U60C A77G], the self-cleavage worked out at 0.22.

On to UAACAGGGGGCCACAGCAGAAGCGUCCACGUCGCACCCCCUGUCAGAUUCUGGUGAAUCUGCGAAUUCUGCUGUAUAUCAC [U26C G36C U80A], for which the self-cleavage was 0.48.

In the case of UAACAGGGGGCCACAGCAGAAGCGUCCACGUCACAGCCCCUGUCAGGUUCUGGUGAAUCUGCGAAUUCUGCUGUAUAUCUC [U26C G33A A47G], the self-cleavage was 0.26.

In the case of UAACAGGGGGCCACAGCAGAAGCGUCCACGUCGCAGCCCCAGUCAGAAUCUGGUGAAUCUGCGAAUUCUGCUGUAUAUCUC [U26C U41A U48A], the self-cleavage stood at 0.32.

For UAACAGGGGGCCACAGCAGAAGCGUCCACGUCGCAGCCCCUAUCAGGUUCUGGUGAAUCUGCGAAUUCUGCUGUAUAUGUC [U26C G42A A47G C79G], the self-cleavage was 0.07.

Turning to UAACAGGGGGCCACAGCAGAAGCGUCCACGCCGCAGCCCCUGUCAGACUCUGGUGAGUCUGCGAAUUCUGCUGCAUAUCUC [U26C U31C U48C A57G U74C], the self-cleavage was 0.51.

Turning to UAACAGGGGGCCACAGCAGAAGCGUCCACGUCGCAGCCCCUGUCAGAUUCUGGUGAAUCUGUGAAUCCUGCAGUAUAUCUC [U26C C62U U67C U72A], the self-cleavage turned out to be 0.33.

With UAACAGGGGGCCACAGCAGAAGCGUCCACUUCGCAGCCCCUGUCAGAUUCUGGCGAAUCUGCGAAUCCUGCUGUAUAUCCC [U26C G30U U54C U67C U80C], the self-cleavage worked out at 0.09.

In the case of UAACAGGGGGCCACAGCAGAAGCGUCCACGUCGCAGCCCCUGUAAGAUUCUGGUGAAUCUGCGAAUUCCGCUGUAUAUCUC [U26C C44A U69C], the self-cleavage turned out to be 0.28.

As to UAACAGGGGGCCACAGCAGAAGCGUCCACGUCUCAGCCCCUGUCAGAUUCUGGUGAAUCUGCGAAUUCUGCUGUAUAUCCC [U26C G33U U80C], the self-cleavage is 0.12.

Take UAACAGGGGGCCACAGCAGAAGCGUCCACGUCGCAGCCCCUGUCAGAUUCUGGUGAAUCUGAGAAUUCGGCUGUAUAUCUC [U26C C62A U69G]: the self-cleavage turned out to be 0.08.

Regarding UAACAGGGGGCCACAGCAGAAGCGUCCACGUCUCAGCCCCCGUCAGAUUCUGGUGAAUCUGCGAAUUCUGCUGUAUAUCUC [U26C G33U U41C], the self-cleavage was 0.41.

Consider UAACAGGGGGCCACAGCAGAAGCGUCCACGUCCCAGCCCCUGUCAGGUUCUGGUGAAUCUGCGAAUUCUGCUGUAUUUCUC [U26C G33C A47G A77U], for which the self-cleavage came to 0.16.

On to UAACAGGGGGCCACAGCAGAAGCGUCCACGUCGCAGCCCUUGUCAGAUUCUGGUGAAUCUGCGAAUUCUGCUGUAUAUCAC [U26C C40U U80A], for which the self-cleavage came out at 0.18.

Take UAACAGGGGGCCACAGCAGAAGCGUCCACGACGCAGCCCCUGUCAGAUUCUGGUGAAUCUGCGAAUUCUGCUGAAUAUCUC [U26C U31A U74A]: the self-cleavage was found to be 0.15.

Consider UAACAGGGGGCCACAGCAGAAGCGUCCACGUCGCAGCCCCUGACAGAUUCUGGUGUAUCGGCGAAUUCUGCUGUAUAUCUC [U26C U43A A56U U60G], for which the self-cleavage stood at 0.08.

As for UAACAGGGGGCCACAGCAGAAGCGUCCACGGCGCAGCCCCUGCCAGAUUCUGGUGAAUCUGCGAAUUCUGCUGCAUAUCUC [U26C U31G U43C U74C], the self-cleavage came to 0.4.

For UAACAGGGGGCCACAGCAGAAGCGUCCACGUCGCAGCCCCUGUCAGAUUCUGGUGAAUCUGUGAAUUCUGCUGUAAAUCUC [U26C C62U U76A], the self-cleavage was 0.14.

Turning to UAACAGGGGGCCACAGCAGAAGCGUCCACUCCGCAGCCCCUGUCAGAUUCUGGUGAAUCAGCGAAUUCUGCUGUAUAUCUC [U26C G30U U31C U60A], the self-cleavage was determined as 0.18.

UAACAGGGGGCCACAGCAGAAGCGUCCACGCCGCAGCCCCUGUCAGAUUCUGGUGAAUCUGCGAAUCCUGCUGUAUAUCUC [U26C U31C U67C]: the self-cleavage is 0.16.

UAACAGGGGGCCACAGCAGAAGCGUCCACGUCCCAGCCCCUGUCAGGUUCUGGUGAAUCUGCGAAUUCUGCUGUAUAUCUC [U26C G33C A47G]: the self-cleavage was determined as 0.15.

With UAACAGGGGGCCACAGCAGAAGCGUCCACGUCGCAGCCCCUGUCAGAUUCUGGUUAAUCUGCGAAUUCUGCAGUAUAUCAC [U26C G55U U72A U80A], the self-cleavage came to 0.15.

In the case of UAACAGGGGGCCACAGCAGAAGCGUCCACGUCGCAACCCCUGUCAGAUUCUGGCGAAUCUGCGAAUUCUGCUGUAUAUCUC [U26C G36A U54C], the self-cleavage is 0.16.
